Out of some 39,000 compounds screened, about 220 (0.56%) showed activity. The list shows a part of the results.
Each compound was assayed on Escherichia coli K-12 BW25113 (assay: relative growth (OD600 normalised to plate interquartile mean) (fraction); higher = less growth inhibition, active = 0.2 or less). Settings: 50 µM; LB; incubation time: overnight (16-24 h).
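Further: static incubation at 37 °C against the wild-type strain, values averaged over two biological replicates.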

Row | Structure (SMILES) | relative growth
1 | C[C@@H](N)CCP(=O)(O)O | inactive: 1.03
2 | CCCN(C)C[C@H]1OCCCC[C@@H](C)Oc2ccc(NS(=O)(=O)c3ccc(Cl)cc3)cc2C(=O)N([C@H](C)CO)C[C@@H]1C | inactive: 1
3 | C[C@H]1CN([C@@H](C)CO)C(=O)c2cc(NC(=O)Cn3cnnn3)ccc2O[C@H]1CN(C)CC1CCCCC1 | inactive: 1.02
4 | CCCN(C)C[C@H]1OCCCC[C@H](C)Oc2ccc(NS(=O)(=O)c3ccc(Cl)cc3)cc2C(=O)N([C@H](C)CO)C[C@H]1C | inactive: 0.968
5 | CCCCCN(CCCCC)C(=O)C(CCC(=O)[O-])NC(=O)c1ccc(Cl)c(Cl)c1.[Na+] (configuration not stated) | inactive: 1.06
6 | C[C@H](CO)N1C[C@H](C)[C@@H](CN(C)Cc2ccc(Cl)c(Cl)c2)Oc2c(NC(=O)Nc3cccc4ccccc34)cccc2C1=O | inactive: 1.02
7 | C[C@@H]1CCCCO[C@H](CN(C)Cc2ccc(C(=O)O)cc2)[C@@H](C)CN([C@@H](C)CO)C(=O)c2cc(NC(=O)Cc3ccccc3)ccc2O1 | inactive: 1.04
8 | Cn1cc(C(=O)NCc2cn3c(n2)CNCC3)cn1 | inactive: 0.979
9 | COc1ccc2c(c1)/C(=N\O)C(=O)N2 | inactive: 1.02
10 | Cc1noc(C)c1NC(=O)N(C)C[C@@H]1Oc2ccc(NC(=O)NC(C)C)cc2C(=O)N([C@@H](C)CO)C[C@H]1C | inactive: 0.981
11 | C[C@@H]1CCCCO[C@@H](CN(C)C(=O)c2ccccc2)[C@@H](C)CN([C@H](C)CO)C(=O)c2cc(NC(=O)CCCCCC(=O)Nc3ccccc3N)ccc2O1 | inactive: 0.967
12 | C[C@@H]1CN([C@@H](C)CO)C(=O)c2cc(NC(=O)Nc3cccc4ccccc34)ccc2O[C@@H](C)CCCCO[C@@H]1CN(C)S(=O)(=O)c1cn(C)cn1 | inactive: 1.02
13 | COCC#Cc1cnc2c(c1)C(=O)N([C@H](C)CO)C[C@@H](C)[C@H](CN(C)C(=O)c1ccc3c(c1)OCO3)O2 | inactive: 1.01
14 | COC(=O)CSc1cc(C)nc(N)n1 | inactive: 0.993
15 | COCC(=O)N(C)C[C@H]1Oc2cc(C#CCN(C)C)ccc2S(=O)(=O)N([C@H](C)CO)C[C@@H]1C | inactive: 0.994
16 | C[C@@H]1CCCCO[C@H](CN(C)C(=O)Nc2ccc3c(c2)OCO3)[C@@H](C)CN([C@H](C)CO)C(=O)c2cc(NS(=O)(=O)c3ccccc3)ccc2O1 | inactive: 1.02
17 | O=C(C[C@H]1CC[C@@H]2[C@H](COC[C@H](O)CN2S(=O)(=O)c2ccc(F)cc2)O1)NCc1ccc(Cl)c(Cl)c1 | inactive: 0.977
18 | C=CCC[C@@H](Cc1ccc(F)cc1)C(=O)OC[C@H]1CCCN1C(=O)[C@@H](CC=C)CC(=O)N(CCO)Cc1ccccc1 | inactive: 1.01
19 | C[C@H]1CCCCO[C@@H](CN(C)S(=O)(=O)c2cn(C)cn2)[C@@H](C)CN([C@@H](C)CO)C(=O)c2cc(NS(=O)(=O)c3cccs3)ccc2O1 | inactive: 0.999
20 | C[C@@H]1CN([C@@H](C)CO)C(=O)c2cc(NS(=O)(=O)c3cn(C)cn3)ccc2O[C@H]1CN(C)S(=O)(=O)c1ccc(Cl)cc1 | inactive: 0.984
21 | C[C@H](CO)N1C[C@H](C)[C@@H](CN(C)Cc2ccc(C(=O)O)cc2)Oc2c(NS(C)(=O)=O)cccc2C1=O | inactive: 0.998

Row | Structure (SMILES) | relative growth
22 | C[C@@H]1CN([C@H](C)CO)C(=O)Cc2cc(NC(=O)Cc3cn(C)c4ccccc34)ccc2O[C@H]1CN(C)C(=O)Nc1cccc2ccccc12 | inactive: 0.989
23 | C=CCCCCCCCCCCCc1ccco1 | inactive: 0.986
24 | NCCN1CCOCC1 | inactive: 0.971
25 | C[C@@H]1CN([C@@H](C)CO)C(=O)c2cc(NC(=O)CCC(F)(F)F)ccc2O[C@@H]1CN(C)C(=O)Nc1cccc2ccccc12 | inactive: 0.964
26 | Cc1noc(C)c1NC(=O)N(C)C[C@@H]1Oc2ccc(NC(=O)NC(C)C)cc2C(=O)N([C@H](C)CO)C[C@@H]1C | inactive: 0.98
27 | C[C@H]1CN([C@@H](C)CO)C(=O)Cc2cc(NC(=O)Cn3cnnn3)ccc2O[C@@H]1CN(C)S(=O)(=O)c1cn(C)cn1 | inactive: 1.03
28 | COC[C@H]1CN(C(=O)C2CC2)Cc2cnn(C)c21 | inactive: 0.974
29 | CCCNC(=O)N[C@H]1C=C[C@H](CC(=O)N2CCN(C)CC2)O[C@@H]1CO | inactive: 0.981
30 | O=C(C[C@H]1C[C@@H]2c3cc(NC(=O)c4cccnc4)ccc3O[C@@H]2[C@H](CO)O1)NCc1cc(F)ccc1F | inactive: 0.97
31 | C=CCN1C[C@@]23C=C[C@@H](O2)[C@@H](C(=O)O)C3C1=O (some centres not stated) | inactive: 1
32 | CN(C)CCCCNC(=O)[C@@H]1C[C@@H]2C(=O)N[C@@H](CCCCN)C(=O)N2[C@@H]1c1ccc(O)cc1 | inactive: 1.07
33 | NCCn1ncccc1=O | inactive: 1.03
34 | CC(C)NC(=O)N(C)C[C@H]1Oc2c(NS(=O)(=O)c3ccc(F)cc3)cccc2C(=O)N([C@@H](C)CO)C[C@H]1C | inactive: 1.02
35 | CCCCCCCCCCCCN1CCCCCC1=O | inactive: 1
36 | COc1ccc(S(=O)(=O)Nc2ccc3c(c2)C(=O)N([C@@H](C)CO)C[C@H](C)[C@@H](CN(C)C(=O)c2ccccc2)OCCCC[C@@H](C)O3)cc1 | inactive: 1.01
37 | C[C@H]1CN([C@@H](C)CO)C(=O)c2cccc(NS(C)(=O)=O)c2O[C@@H]1CN(C)C(=O)Nc1ccccc1 | inactive: 1.01
38 | O=C(C[C@@H]1C=C[C@@H](NS(=O)(=O)c2ccccc2)[C@@H](CO)O1)NCc1ccncn1 | inactive: 0.987
39 | C[C@H]1CN([C@@H](C)CO)C(=O)Cc2cc(NC(=O)C3CC3)ccc2O[C@@H]1CN(C)S(=O)(=O)c1ccc(Cl)cc1 | inactive: 0.991
40 | C[C@@H]1CCCCO[C@H](CN(C)Cc2ccc3c(c2)OCO3)[C@H](C)CN([C@@H](C)CO)C(=O)c2cc(NS(=O)(=O)c3ccc(F)cc3)ccc2O1 | inactive: 1.01
41 | Cc1noc(C)c1NC(=O)Nc1ccc2c(c1)C(=O)N([C@H](C)CO)C[C@H](C)[C@H](CN(C)Cc1ccc(Oc3ccccc3)cc1)O2 | inactive: 1.02
42 | O=C(CN1CCOCC1)N[C@@H]1CC[C@@H](CCNS(=O)(=O)c2ccccc2F)O[C@H]1CO | inactive: 1.01

— the supplement of paper PMC9446081
